# Measurements: publication PMC12136788
# Some of the results follow.
# T1: UNK ZnF1-3 (human, UniProt Q9C0B0 31-174)
# T1 sequence: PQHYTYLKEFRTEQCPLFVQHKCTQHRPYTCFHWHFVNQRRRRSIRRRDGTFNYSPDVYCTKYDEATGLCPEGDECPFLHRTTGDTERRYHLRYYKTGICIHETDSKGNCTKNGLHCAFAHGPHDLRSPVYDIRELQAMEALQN
# B1: chr4:104905227:104905228:+_ENSMUSG00000028517_ENSMUST00000064139|mus_hu|FALSE|FALSE (ssRNA)
# RNA: GGGAGUUCUACAGUCCGACGAUCACAAAAUGGAACCUUACAAAAAUACUGACAAUUUAAUGUUUUUAUACAGUUUUCUCUAGUUGCAGUUAUUUCAUUAUAAAACAAUGUCUACCACAGAACUAUGAUAUUUUAGUUGAUAUUCAACAGAGGAUUGAGCAUCA
# B2: chr16:11966626:11966627:-_ENSG00000103342_ENST00000563468|hu_mus|motif|central (ssRNA)
# RNA: GGGAGUUCUACAGUCCGACGAUCUUUUAACAUGUGCAGACACACUCCCACACUCAGAAUCAUCUGCCUGGGGGAAAAAGACGGACGGUGCCUAAGAAGAAAAUGAAAAAUAAAAAAAUUCCUGUAGGUUUUCAUUAUUGUAGGCAACAGAGGAUUGAGCAUCA
# B3: chr11:100452861:100452862:-_ENSMUSG00000014195_ENSMUST00000014339|mus_mus|motif|central (ssRNA)
# RNA: GGGAGUUCUACAGUCCGACGAUCCAUUCGUAAAAUGUCACUGGCCACAAACUGUGCUUCUGGGUAUCGACCAAGCAUUGCGGAACAUUCUGCUUUGAGAAUUUUGAAUCGAUGGCAGGCAGGGGCAAAUUCUAGGGCACGGUCCAACAGAGGAUUGAGCAUCA
# B4: chr5:37680062:37680063:+_ENSMUSG00000029121_ENSMUST00000031004|mus_hu|mus_mus_mus_hu_False|18_48 (ssRNA)
# RNA: GGGAGUUCUACAGUCCGACGAUCUUUGGGUGUAGCUGGUACCUCGUACACAGGACCGUCAUACAUGCCCCUGGAAACCCCUUGCAACCCGAAAACCUUAUUCCUGAUUUUGACGCGCUGGUAGAGAUGCUCCGGGAACGCCUUCAACAGAGGAUUGAGCAUCA
# B5: chrX:34421674:34421675:+_ENSMUSG00000016308_ENSMUST00000016452|mus_hu|motif|central (ssRNA)
# RNA: GGGAGUUCUACAGUCCGACGAUCGAACAUCUUAGAGACAAAUCUAACUGUAGGUGGUUUAUUUGGAUAUUCUUCAGUGAAUUCGGUUGUAAGUUUAAAUGUUCCAUCCUCAAACGGGGUCCCUUCAGGCCCGAAAAUGACCGCCAACAGAGGAUUGAGCAUCA
# B6: chr2:5814250:5814251:-_ENSMUSG00000025816_ENSMUST00000102981|mus_hu|mus_mus_mus_hu_True|28_38 (ssRNA)
# RNA: GGGAGUUCUACAGUCCGACGAUCUUCCUUUCCGGUUUCUGAAUUUCUGGUAGAACUGCACAGAAUGGUUUGAUAACUUCUAAAAAUUUGAUGCCCAUGGCGGCGGCUCAGCACACCCAGGGGGAAACCGCGGCCUCGGCGCUGCAACAGAGGAUUGAGCAUCA
# B7: chr6:90346886:90346887:-_ENSG00000083099_ENST00000520318|hu_hu|FALSE|FALSE (ssRNA)
# RNA: GGGAGUUCUACAGUCCGACGAUCCAGGGUAUGUUUUUCAGUGUUAAGGCAACUGUUCUGAUGUGUUUUUCCUUUGCUCUCUAUCACCAAAUACUGUACAUAUAAAUAGUAAGACUGGGCUUUGUGUUGUCCAUUGUUAAUCCUCAACAGAGGAUUGAGCAUCA
# B8: chr1:109605286:109605287:-_ENSG00000197780_ENST00000461096|hu_mus|hu_hu_hu_mus_True|28_88 (ssRNA)
# RNA: GGGAGUUCUACAGUCCGACGAUCAAGUUUCAGAGUAACAUUCAGUAUACUUAAAUCAUGCAAUUAUCCUUAUUAUAAGCUAAGCAGAAUAAUAAUUUAAUACCGUAAGUAAAUACAACACAAAGCCUGAACCGCGAAAAUGGUCAACAGAGGAUUGAGCAUCA
# B9: chr7:65705475:65705476:+_ENSG00000169902_ENST00000304842|hu_hu|hu_hu_hu_mus_True|18_48 (ssRNA)
# RNA: GGGAGUUCUACAGUCCGACGAUCUCUAUUCGGUGAUGGCACUCCAUGGCAUGCUGGCCCAGGUAAAACACGGUCACAGAACUAAUCACCAGACAUGCCAAGAGUAAGUUCUGCUUCAGCUUUCCAACCAUCUUGAUGUGGUUACAACAGAGGAUUGAGCAUCA
# B10: chr11:46405157:46405158:+_ENSG00000110492_ENST00000395566|hu_mus|FALSE|FALSE (ssRNA)
# RNA: GGGAGUUCUACAGUCCGACGAUCCCCUCCCCACUUUGGGCACUUGGUGUGGGCGUGAGAGGACAGGCGUGAUUGACAGAGCUGACAGGAAGACAAAAGGCACUGGUGGGUUAUAUCUUGGGCCUGUGGGAGAGGAGGGCUCCGCAACAGAGGAUUGAGCAUCA
# B11: chr5:140076784:140076785:+_ENSG00000112855_ENST00000230771|hu_hu|motif|central (ssRNA)
# RNA: GGGAGUUCUACAGUCCGACGAUCCCCAGCCUGAGUUGGGGUCUGCAGCAGCACUGCUUCAUAGAUCACUCCUGUAUAGUAGUCGGGGCCCCGAGCCAGGCUGAGGUCAAAGGAGAUCUUAUCAGCAAUUCCAAAUAAAGUCAGCAACAGAGGAUUGAGCAUCA
# B12: chr17:6138058:6138059:+_ENSMUSG00000034377_ENSMUST00000152672|mus_mus|FALSE|FALSE (ssRNA)
# RNA: GGGAGUUCUACAGUCCGACGAUCAAGCCCUUCCCUCAAGCAGAGGUGGAGGCCUGCGGGUCACUGAGUAUGAAUAAACUGCUAUCUAAAUGGACCAAGUAGUUUCCUCAGUUUGGUCCUACUUCUUGCUUACACAGACUAGGCCAACAGAGGAUUGAGCAUCA
# B13: chrX:123197699:123197700:+_ENSG00000101972_ENST00000371157|hu_hu|FALSE|FALSE (ssRNA)
# RNA: GGGAGUUCUACAGUCCGACGAUCUGUGUGCUUCUCUACAAUAUUCCGGAUCUGUCGCAAUAAGGCAUCCAAAUGCUUUUCUAAUCGUCCAGUGGUAUAUAUUUCCAAAUCAAAGUACUGAGGCAACUGCAACAAGUUAGUCACCAACAGAGGAUUGAGCAUCA
# B14: chr6:128323885:128323886:+_ENSMUSG00000001517_ENSMUST00000073316|mus_mus|FALSE|FALSE (ssRNA)
# RNA: GGGAGUUCUACAGUCCGACGAUCAGGGUCCUCCUCCAGGCCAGGGAAACUGAUGUCUAGAAGGAUCUUGCUGAGGCUAUCAUUCAUUGUGUCCAGGACAAGGCCUUCUGUGAGAGAACGGUUGGCUGAAAGGCUGGGAAUCUGCAACAGAGGAUUGAGCAUCA
# B15: chr15:55677894:55677895:-_ENSG00000260916_ENST00000569205|hu_hu|motif|central (ssRNA)
# RNA: GGGAGUUCUACAGUCCGACGAUCUGAACAUUCUGGGGCGGGCUCACAGCUGUCAGUGGGGGUCACAGAAUUCAACAUUUCGGUAUCUGACCCCUCAUGACUGAUGACAGUCCAACCACAAGAUGAAUCACUGUCACUGGAAUUCAACAGAGGAUUGAGCAUCA
# B16: chr1:21151686:21151687:-_ENSG00000075151_ENST00000400422|hu_mus|FALSE|FALSE (ssRNA)
# RNA: GGGAGUUCUACAGUCCGACGAUCUAAAAAGUCCUUCCAGCUGAGGUCAGCCUCCCUCCACAGGGCGCCUACUUUCUUAUGGCUCAUUUGUCUGCAUAGAAGGUGUAGGAUUUCAGAAAGCAGGACCCCAGCUCUGCCAACAGGCAACAGAGGAUUGAGCAUCA
# B17: chr16:22014287:22014288:+_ENSMUSG00000022855_ENSMUST00000023561|mus_hu|FALSE|FALSE (ssRNA)
# RNA: GGGAGUUCUACAGUCCGACGAUCAGAGUUCGAAAAUACCUCUCCUGAAGGGGCCACAUUCCGUGUUCCAUUACAAGCAGAAGUUACCAUGGGCUUUGUGGUCAGCUGGAAUGGGAAUCCAAAUAAGCUGGCAGCAUUGUAGAGCAACAGAGGAUUGAGCAUCA
# B18: chr13:85337103:85337104:+_ENSMUSG00000021548_ENSMUST00000022030|mus_hu|FALSE|FALSE (ssRNA)
# RNA: GGGAGUUCUACAGUCCGACGAUCGUCGAUGAGGAAGCCCUCAAAUGGUCUGUAAGGAUUGUGGACAAUAAGGUGGAAAUUAAGUUGCUGUAUAAGAAGUAGUUCAUAUUCCAGUAUCUGUUCAAGUGCCUUCUCCUGUCCAAGCAACAGAGGAUUGAGCAUCA
# B19: 134435293_134446391_554_3pUTR_ENSMUSG00000034723_ENSMUST00000038228|mouse|control|control (ssRNA)
# RNA: GGGAGUUCUACAGUCCGACGAUCACCAGCCAUUCCAGACAUCGUUAGAGAGGCUGGGGACUUCCAGCCAGUGAGAGGCUCAACUGAUUGCCAUUUCUUCUCUAAUAUGUAAUUCUGUAAAUCUUCAUAGAUUCCUGGACCACGCAACAGAGGAUUGAGCAUCA
# B20: chr2:78712580:78712581:+_ENSMUSG00000027011_ENSMUST00000028398|mus_hu|motif|central (ssRNA)
# RNA: GGGAGUUCUACAGUCCGACGAUCAUUAGGAGGAGGAUCAAGGGUUAUUUCAGCUAGCUCCUUCUGAAUUCUUUUAGCACGGGUGGAUAACUUAGCAGUGGUUUUGCUAGAGAGUUUGGUGUUUUUCUUCUGCUGGGUGGCAGACAACAGAGGAUUGAGCAUCA
# B21: chr2:203071746:203071747:-_ENSG00000116030_ENST00000392246|hu_mus|FALSE|FALSE (ssRNA)
# RNA: GGGAGUUCUACAGUCCGACGAUCCACAAACCUGAAAAUGCACAGUCCUGAAAAGGGUGGCCUCUCUGUGCACACAUGAAAUCUCUUAAAGGAAAAAGGGCAGUAUUAAGGGAGCUGAGGUCUGAUCACCAAAAAUCAGCACAACAACAGAGGAUUGAGCAUCA
# B22: chr4:41262718:41262719:+_ENSG00000154277_ENST00000284440|perfect_dup|FALSE|FALSE (ssRNA)
# RNA: GGGAGUUCUACAGUCCGACGAUCCCCGAUGGUACCACAGGAGUUUCCGAUGGUCUGCUUCAUGAAGUAAACUUUAGGGCUAACUUCCUGUCCCUUCAGUUCCUCAAUUUGCUUUUUCCUGAAGUUUUCAUGCUGGGCCGUGAGCAACAGAGGAUUGAGCAUCA
# Target: T1, UNK ZnF1-3
# Test: nsRBNS (natural sequence RNA bind-n-seq); RBNS binding buffer (assumed for nsRBNS): 25 mM Tris pH 7.5, 150 mM KCl, 3 mM MgCl2, 0.01% Triton X-100, 500 ug/ml BSA, 20 U/ml SUPERase-In, 4 C; UNK is unkempt and MSI1 is Musashi-1; names of the RNAs are library labels; protein concentration not given here; high values mean tight binding
row,Binder,binding signal
1,B1,0.491 enrichment R
2,B2,1.82 enrichment R
3,B3,1.45 enrichment R
4,B4,0.821 enrichment R
5,B5,0.861 enrichment R
6,B6,0.936 enrichment R
7,B7,0.606 enrichment R
8,B8,0.775 enrichment R
9,B9,0.43 enrichment R
10,B10,2.26 enrichment R
11,B11,0.57 enrichment R
12,B12,0.75 enrichment R
13,B13,1.52 enrichment R
14,B14,1 enrichment R
15,B15,0.589 enrichment R
16,B16,0.773 enrichment R
17,B17,1.29 enrichment R
18,B18,1.26 enrichment R
19,B19,1.17 enrichment R
20,B20,1.2 enrichment R
21,B21,1.72 enrichment R
22,B22,0.857 enrichment R
